PubChem BioAssay AID485344 (National Center for Advancing Translational Sciences (NCATS), 2010)
Among all 340,000 compounds or so, about 6,900 (2%) were called active. Rule as the data show it: active = inhibition above about 30%; inactive = below that, where a call was filed. This is a selection; strong and weak results do not stand in their true shares. Entries without a call were filed so in the source.

Biological target: D(2) dopamine receptor (Homo sapiens) (UniProt P14416)
Experiment: HTS Assay for Allosteric Antagonists of the Human D2 Dopamine Receptor: Primary Screen for Antagonists; also: 0% is about no effect
Settings: HEK293 TREx D2 cells, calcium flux, dopamine EC80; at 10 µM; stronger effect = higher value
Summary of the method: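 Read-out: kinetic calcium fluorescence (1 cycle/s) in inducible HEK293 T-REx D2 cells after an EC80 dopamine addition that followed 180 s compound preincubation. Loss of the dopamine response indicates antagonism.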

Sequence of UniProt P14416 (P14416 whole entry, looked up): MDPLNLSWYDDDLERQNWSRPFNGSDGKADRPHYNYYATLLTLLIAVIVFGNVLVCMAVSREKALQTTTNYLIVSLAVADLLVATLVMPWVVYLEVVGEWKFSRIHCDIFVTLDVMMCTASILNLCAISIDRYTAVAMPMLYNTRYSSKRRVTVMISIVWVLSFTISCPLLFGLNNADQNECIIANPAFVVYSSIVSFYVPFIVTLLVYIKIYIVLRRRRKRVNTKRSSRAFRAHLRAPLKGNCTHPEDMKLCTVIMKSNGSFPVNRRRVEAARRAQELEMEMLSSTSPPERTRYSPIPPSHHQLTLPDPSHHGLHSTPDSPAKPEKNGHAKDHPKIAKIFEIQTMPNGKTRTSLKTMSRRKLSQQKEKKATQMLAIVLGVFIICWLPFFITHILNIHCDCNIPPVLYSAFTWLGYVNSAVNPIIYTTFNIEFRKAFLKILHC

Row | SMILES | inhibition
1 | COc1ccc(Cn2c(=O)c3oc4ccccc4c3n(CC(=O)Nc3c(C)cccc3C)c2=O)cc1 | -2.42%
2 | Cc1oc2cc3oc(=O)c(CCC(=O)NCCc4ccccc4F)c(C)c3cc2c1C | 12.1%
3 | Cc1ccc(OCCSc2nnc(-c3cccs3)o2)cc1 | -20.2%
4 | COc1ccc(-c2nc3c(c(SCc4ccc(Br)cc4)n2)Cc2c(CO)cnc(C)c2O3)cc1 | -2.28%
5 | Cc1ccc(-n2ncc(C(=O)NCc3ccc4c(c3)OCO4)c2C2CCN(C(=O)OC(C)(C)C)CC2)c(C)c1 | 15.8%
6 | Cc1ccccc1OCC(=O)Nc1ccc(S(=O)(=O)N(Cc2ccccc2)c2ccccc2)cc1 | 0.755%
7 | COC(=O)c1ccc(NC(=O)c2cc(S(=O)(=O)N3CCOCC3)cn2C)cc1 | -8.17%
8 | CC(=O)Nc1ccc(NS(=O)(=O)c2c(C(=O)N3CCCCCC3)c(C)n(C)c2C)cc1 | 10.7%
9 | CN(C)c1ccc(NC(=O)Cn2c(SCc3ccc(F)cc3)nc3ccncc32)cc1 | -5.02%
10 | COc1ccc(CCNC(=O)CSc2cn(CCNC(=O)c3c(F)cccc3F)c3ccccc23)cc1OC | 0.757%
11 | COc1cc2c(cc1OC)n(CC(=O)c1cc(C)ccc1C)c(=O)n1nc(CCn3nc(C)cc3C)nc21 | 21%
12 | CC1=C(C(=O)Nc2cccnc2)C(c2ccc(C)cc2)n2nc(SCc3ccccc3F)nc2N1 (centres undefined) | 10%
13 | Cc1c(CCNC(=O)c2ccc(C(C)(C)C)cc2)sc2nc(-c3ccc(F)cc3)nn12 | -11.8%
14 | CCc1cc2c(cc3c(=O)n(CCCC(=O)NCc4cccc(Br)c4)ncn32)s1 | -5.42%
15 | Cc1ccc(NC(=O)C(CC(C)C)N2Cc3ccccc3C2=O)cc1F (centres undefined) | 5.98%
16 | CNS(=O)(=O)c1cn(CC(=O)N2CCN(c3ccc(C(C)=O)cc3)CC2)cc1S(=O)(=O)NC | -2.56%
17 | CCCCC(CC)CNC(=O)Cc1ccc(-n2c(=O)[nH]c3ccccc3c2=O)cc1 (centres undefined) | -0.444%
18 | CCCCC12CN3CC(C)(CN(C1)C3c1c[nH]c3ccccc13)C2=O (centres undefined) | 15.7%
19 | Cc1cccc(CSc2nc3c([nH]c4ccccc43)c(=O)n2C)c1 | 1.92%
20 | COc1ccc(N2CCN(S(=O)(=O)c3ccc(-c4coc(C)n4)cc3)CC2)cc1 | -2.49%
21 | CC(=O)N1c2ccc(S(=O)(=O)Nc3ccc(C)c(Cl)c3)cc2CC1C (centres undefined) | 11.2%
22 | CCOc1ccc(CC(=O)Nc2c(C(=O)c3ccccc3)oc3ccc(Cl)cc23)cc1OCC | 14.2%
23 | Cc1cc2c(cc1S(=O)(=O)Nc1cccc(Cl)c1C)n(C)c(=O)c(=O)n2C | -4.06%
24 | CCN1CCCC1CNC(=O)c1cc([N+](=O)[O-])c(N(C)C)cc1OC (centres undefined) | active: 74.6%

Row | SMILES | inhibition
25 | CCOC(=O)c1cc(-c2ccccc2)n(CCC(=O)Nc2ccccc2CC)c1C | -24.8%
26 | CCc1ccc(CN(C)CC(=O)Nc2sccc2C#N)cc1 | active: 63.9%
27 | Cc1cc(C)cc(N2C(=O)CSC23C(=O)N(Cc2c(F)cccc2Cl)c2ccccc23)c1 (centres undefined) | 5.53%
28 | Cc1cccc2nc(-c3ccccn3)c(Nc3ccc(F)cc3)n12 | 16.6%
29 | COc1ccc(C2CC(=O)N(Cc3ccc(C)cc3)c3c2c(C)nn3-c2nc(C)cc(C)n2)c(OC)c1 (centres undefined) | 25.5%
30 | O=C(CSc1nc(=O)n(CCN2CCOCC2)c2c1CCC2)Nc1ccc(Cl)c(Cl)c1 | -17.5%
31 | O=C(Nc1ccc(F)c(Cl)c1)Nc1c[nH]c(=O)[nH]c1=O | 19.4%
32 | Cc1cc(C)c(N=Cc2c(O)n(-c3nccs3)c(=O)c3ccccc23)c(C)c1 | active: 41%
33 | Cc1ccc2nc(SCc3nc(-c4ccc(Cl)cc4)no3)[nH]c2c1 | 17.8%
34 | CC(=O)Nc1ccccc1-c1nc2ccccc2n(CC(=O)Nc2cccc(C)c2C)c1=O | 6.3%
35 | CC(CNC(=O)c1cnn(-c2ccc(F)cc2)c1-n1cccc1)c1ccccc1 (centres undefined) | 3.86%
36 | COc1ccc(C(C(=O)NC2CCCC2)N(C(=O)c2ccoc2C)c2ccc(C)cc2)cc1 (centres undefined) | active: 50.1%
37 | Cc1c(C(=O)N2CCCCCC2)c(S(=O)(=O)NCc2ccccc2)c(C)n1C | -0.843%
38 | CSc1ccccc1-c1nnc(NC(=O)c2ccc3c(c2)OCCO3)o1 | -16.7%
39 | CC(C)(C)C(=O)CSc1nc2ccsc2c(=O)n1Cc1ccccc1Cl | -10.4%
40 | CSc1ccc(CCNC(=O)c2cc(C)nc3c2c(C)nn3-c2cccc(F)c2)cc1 | -1.23%
41 | COc1ccc(NC(=O)c2cc3cc(C)ccc3[nH]2)cc1 | -16.1%
42 | O=C(OCc1cc(=O)n2nc(-c3cccs3)sc2n1)c1ccccc1Cl | -3.61%
43 | COc1cccc(CSc2nc3n(n2)C(c2ccc(C(=O)O)cc2)C(C(=O)Nc2ccccc2)=C(C)N3)c1 (centres undefined) | 13.5%
44 | CCOc1ccccc1NC(=O)CSc1nc2c(oc3ccccc32)c(=O)n1-c1ccc(F)cc1 | -8.27%
45 | CCc1ccc(NC(=O)CSc2nc(C)c(C(=O)Nc3ccccc3)c(-c3ccc(OC)c(OC)c3)c2C#N)cc1 | -6.99%
46 | Cc1cc(Br)ccc1NC(=O)CSc1c2c(nc3ccccc13)CCC2 | 1.03%
47 | C#Cc1ccc(CN2CCN(CCCc3ccccc3)C(CCO)C2)cc1 (centres undefined) | active: 74.7%
48 | O=C(c1cccs1)N1CCC(N2CCN(c3ccccc3)CC2)CC1 | active: 54.2%

Row | SMILES | inhibition
49 | CCOc1ccc(CNC(=O)CCc2c(C)nn(-c3ccc(N4CCCCC4)nn3)c2C)cc1 | -9.32%
50 | CCOC(=O)C(Cc1cc(C(C)=O)ccc1OC(C)C)C(=O)OCC | active: 54.2%
51 | CC(=O)N1CCc2c(sc3c2c(=O)n(-c2ccccc2)c(=O)n3CC(=O)Nc2cc(C)cc(C)c2)C1 | -4.44%
52 | CCOc1ccc(CCNC(=O)c2c(C)oc3ncn(CC(C)C)c(=O)c23)cc1OCC | 1.55%
53 | CC(COc1ccccc1)N(CCCl)Cc1ccccc1 (centres undefined) | active: 60.9%
54 | O=C(NCc1ccccc1F)C(=O)NCC(c1ccc2c(c1)OCO2)N1CCOCC1 (centres undefined) | 4.29%
55 | Cc1ccc(-n2nc(C(=O)N3CCN(c4ccccc4F)CC3)c(=O)n(C)c2=O)cc1 | -12.9%
56 | CCCCCc1ccc(-c2ccc(Br)cc2)nc1 | 2.36%
57 | CCOc1ccc(C(=O)Nc2ccc(OCc3cc(=O)n4cccc(C)c4n3)cc2)cc1 | 4.1%
58 | COc1ccc(CN=Cc2[nH]c3ccc(Br)c(Cl)c3c2O)cc1 | active: 42.5%
59 | O=c1[nH]c(C2CCN(S(=O)(=O)c3ccccc3C(F)(F)F)CC2)nc2c1nnn2Cc1cccc(F)c1 | active: 42.7%
60 | COc1ccc(S(=O)(=O)NCc2cccn2Cc2cc(C)ccc2C)cc1OC | -6.63%
61 | CCc1nnc2c3ccccc3nc(Nc3cc(C)cc(C)c3)n12 | -8.53%
62 | COc1ccc(-c2cc(-c3nc(-c4cc(OC)c(OC)c(OC)c4)no3)[nH]n2)c(OC)c1 | 20.2%
63 | CC(=O)NCCNC(=O)CCCc1nnc2n(CC(C)C)c(=O)c3sccc3n12 | 6.58%
64 | COc1cccc(NC(=O)Cn2c(=O)n(Cc3ccc(F)cc3)c(=O)c3sc4ccccc4c32)c1 | -14.6%
65 | CCc1ccc(-c2nc3cc(NC(=O)c4ccc(C)c(C)c4)ccc3o2)cc1 | 15.4%
66 | CCOc1ccc(NC(=O)c2nc(S(=O)(=O)Cc3ccccc3F)ncc2Cl)cc1 | -10.8%
67 | CC(O)C(O)C(O)C(O)C1NCCS1 (centres undefined) | active: 78.9%
68 | COc1ccc(S(=O)(=O)n2nc(-c3ccco3)nc2NCc2ccc(C(C)C)cc2)cc1 | -2.32%
69 | COc1ccc(S(=O)(=O)N2CCN(C(=O)[C@@H]3CCC(=O)N3C3OC(=O)c4ccccc43)CC2)cc1 (some centres undefined) | active: 51.5%
70 | Cc1cccc(NC(=O)Cn2c(=O)n(CC3CCC(C(=O)NCCc4ccccc4)CC3)c(=O)c3ccccc32)c1 (centres undefined) | -16.5%
71 | Fc1ccc(Nc2nc(-c3cccc(Cl)c3)c3c(n2)-c2ccccc2OC3)c(F)c1 | 14.1%
72 | Fc1ccc(-c2cc(-c3ccc(F)cc3)c3c(n2)-c2cc(F)ccc2OC3)cc1 | 22.3%

Row | SMILES | inhibition
73 | O=Cc1cc(Cl)ccc1OCCN1CCC(Cc2ccccc2)CC1 | active: 50.9%
74 | CCOc1ccc2nc(N3CCCC(C(=O)Nc4ccccc4CC)C3)sc2c1 (centres undefined) | -8.3%
75 | CCc1ccc(NC(=O)CSc2nc(-c3ccc(C)cc3)nc3c2Cc2c(CO)cnc(C)c2O3)cc1 | -22.2%
76 | CCOC(=O)c1c(NC(=O)c2cc(-c3cccc(Cl)c3)on2)sc(C)c1C | 3.36%
77 | CCOC(=O)c1cc(-c2ccc(F)cc2)n(CCC(=O)NC2CCC(C)CC2)c1C (centres undefined) | -0.296%
78 | CCN1CCN(C2=CC3=CC(=C(C#N)C#N)CCC3CC2)CC1 (centres undefined) | active: 79.4%
79 | COc1ccc(CNC(=O)CCc2c(C)nc3cc(-c4ccc(OC)cc4OC)nn3c2C)cc1 | 3.86%
80 | CNc1ccc(-c2nc(-c3ccncc3)no2)cc1[N+](=O)[O-] | 4.69%
81 | Cc1ccc(CNc2cc(C)nc3nc(-c4ccc(C)cc4)nn23)cc1 | -5.56%
82 | O=c1[nH]c(CN2CCN(C/C=C/c3ccccc3)CC2)nc2ccccc12 | active: 63.4%
83 | O=C(NC1CCCCC1)c1ccc2c(c1)N(Cc1cccc(Cl)c1)C(=O)c1ccccc1S2(=O)=O | 4.06%
84 | COC(=O)c1ccccc1NC(=O)CSc1nc2ccccc2nc1Cc1ccc(F)cc1 | 20.4%
85 | COc1ccc(N2CCN(C(=O)C(CC(C)C)NS(=O)(=O)c3ccc4nc(C)sc4c3)CC2)cc1 (centres undefined) | 2.14%
86 | Cc1ccc(-c2noc(CCC(=O)NCc3ccco3)n2)cc1 | active: 60.3%
87 | CC(C)CCNc1nc(Nc2ccccc2)c2cnn(C)c2n1 | 4.5%
88 | O=C(Cc1ccc(Cl)cc1)NCCc1csc2nc(-c3ccccc3F)nn12 | 1.98%
89 | CCC(C)(C)NC(=O)C(NS(=O)(=O)c1cccs1)c1ccccc1 (centres undefined) | 11.1%
90 | Cc1cc(F)ccc1Nc1nc2ccc(Cl)cc2n2cnnc12 | 5.8%
91 | CCOC(=O)c1ccc(-n2c(CCC(=O)O)ccc2-c2ccccc2)cc1O | -13.8%
92 | Cc1ccc(S(=O)(=O)N(C)C)cc1NC(=S)NCCc1ccccn1 | active: 34.1%
93 | CNC(=O)NC(=O)C(C)N1CCN(C/C=C/c2ccccc2)CC1 (centres undefined) | active: 33.5%
94 | Cc1ccc(C)c(NC(=O)c2nc(S(=O)(=O)Cc3ccc(F)cc3)ncc2Cl)c1 | 14.3%
